Test results from PubChem BioAssay AID1347120 (National Center for Advancing Translational Sciences (NCATS), 2019).
About 930 (0.24%) of roughly 390,000 compounds were called active. The inconclusive results got no clear call from the source; some entries with a clear call stand among them for comparison. The call rests on the fitted dose curve; in most records, active means well fitted activation curve with a large enough effect; inconclusive means small, poorly fitted or top-dose-only effect; inactive means no such curve, though single readings can be large or run the other way. Potencies beside an inconclusive call are fits to weak or partial responses and may not hold up.

Experiment: qHTS for Suppressors of FUS Proteinopathy: Primary screen using FUS-linked yeast assay; further: nearly all actives have a fitted effect of over 55% in size;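 on growth rescue (activation): plate controls were DMSO vehicle for no effect and reference control for full effect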
Settings: S. cerevisiae FUS-expressing, OD600, 24 h; Potency: growth rescue; growth rescue (activation): at 76.6 µM (top of the series)
Source text: Several widespread neurodegenerative diseases, including Alzheimer disease, Huntington disease, Frontotemporal Lobar Degeneration (FTLD) and Amyotrophic Lateral Sclerosis (ALS), share a common pathological feature, namely accumulation of specific protein aggregates in diseased tissue. These diseases which is associated with protein misfolding (proteinopathies) have become increasingly problematic as the population ages and life expectancies are extended. Most proteinopathies are currently incurable, a situation confounded by the fact that the basis of neurodegeneration is generally poorly understood. There exists urgent and significant need to find therapeutics that can inhibit the toxicity associated with protein aggregation. A novel approach to understand the underlying mechanisms of neurodegenerative diseases has recently emerged in which the disease conditions are modeled in the yeast (Saccharomyces cerevisiae), a tractable eukaryotic organism with conserved protein quality control mechanisms. Yeast offers quick and reliable genetic manipulations and can be easily tailored to high-throughput screening (HTS).
For this project, a yeast model of the FUS proteinopathies (a spectrum of neurodegenerative diseases that include ALS and a subtype of FTLD) was generated and employed. The cytoplasmic accumulation of the DNA/RNA-binding protein FUS (also known as TLS) is causative to both familial and sporadic forms of ALS and FTLD. This yeast model recapitulates neuronal pathology by showing severe cytotoxicity associated with cytoplasmic accumulation of FUS aggregates and a specific interaction between FUS and TDP-43, another ALS-associated protein. […] Specifically, the cellular accumulation of misfolded FUS that disrupts RNA homeostasis in both yeast and higher eukaryotes. This model was validated to be suitable for quantitative HTS (qHTS) use for finding genetic or chemical factors that restore growth. […] Identified compounds that inhibits FUS-yeast toxicity is flagged, re-acquired, and validated for further investigation and optimization.
NIH Chemical Genomics Center [NCGC]
NIH Molecular Libraries Probe Production Centers Network [MLPCN]
Assay Submitter (PI): Frank Shewmaker PhD, Uniformed Services University of the Health Sciences
Compound CP55940 was used as the positive control. Column 1 was treated with CP55940 titration from 92uM (final concentration, 1:2 dilution), while Column 2 was treated with top dose 92uM. Columns 3 and 4 were treated with DMSO only as negative control to assess background and noise signal.
Four hundred fifty microliter of cultured yeast (in 20mL rich medium) provided by Dr. Shewmaker lab was incubated at 30C at 99% humidity for 3hr. The culture was then spun down at 4000rpm for 5min and the cell pellet was resuspended in 2mL of Sdmin Media + ALU(330) + 2.5% Raffinose. One hundred microliter of the suspension was added to 900uL of water and OD of the solution was obtained. Twenty mL of responding medium (provided by Shewmaker lab) + 2.5% raffinose was added to ensure cell density of 0.1; the solution was incubated overnight. Working cell solution (FUS-yeast in Sdmi + Sdmi + 1X ALU + 2% galactose media) was prepared (final OD at 0.005) and 3uL was dispensed in a 1536-well Aurora high based clear bottom assay plates. Controls and library compounds (at various final concentrations from 40uM to 0.32uM) were added using a 1536-well pin array using the Kalypsys pin-tool. The plates were then incubated for 24hrs in a cell-culture incubator (30C; 99% humidity). Absorbance at 600nm was then read using the PerkinElmer ViewLux plate reader.
Potency means the concentration at half of the fitted maximal effect; tags describe the fitted curve by direction and shape.

SMILES | Potency | growth rescue (activation)
CCc1cccc(CC)c1NC(=S)NCc1ccc2[nH]c(C)cc2c1 | inconclusive: 35.5 µM [activator, single point] | –
COc1ccc(C)cc1NC(=O)C1CCCN(S(=O)(=O)c2ccc3c(c2)CCCN3C(C)=O)C1 (centres undefined) | inconclusive: 15.8 µM [activator, partial curve] | –
CCOC(=O)[C@H]1[C@H]2COc3cc(OC)ccc3[C@@H]2N2C(=O)CN(Cc3ccc(Cl)cc3)C(=O)[C@@]12C | inconclusive: 11.2 µM [activator, partial curve, poor fit] | –
Cc1ccc(C(=O)Oc2ccc(C(=O)COC(=O)C3CC(=O)N(Cc4ccco4)C3)cc2)cc1 (centres undefined) | inconclusive: 39.8 µM [activator, single point] | –
O=C1c2ccccc2NC(c2ccc(O)cc2)N1Cc1ccco1 (centres undefined) | inconclusive: 15.8 µM [activator, partial curve, poor fit] | –
O=C(COC(=O)c1cc(S(=O)(=O)N2CCCC2)ccc1O)Nc1ccc(S(=O)(=O)N2CCOCC2)cc1 | inconclusive: 31.6 µM [activator, single point] | –
COc1cccc(=O)c2c(C)n(-c3cc(C)cc(C)c3)c(C)c12 | inconclusive: 22.4 µM [activator, partial curve, poor fit] | –
CCOc1cc(-n2cnnn2)c(OCC)cc1NC(=O)c1cnccn1 | – | inactive: -1.28%
Cc1ccnc(NC(c2ccccc2F)c2ccc3cccnc3c2O)c1 (centres undefined) | inconclusive: 5.62 µM [activator, full curve] | –
COc1ccc(C2=CC(=O)CC(c3ccc(F)cc3)C2)cn1 (centres undefined) | – | inactive: 14.4%
CCOc1ccc(NC(=O)N2CCOc3ccccc32)cc1 | – | inactive: -24.3%
COCC(=O)N(C)C1(c2nnnn2CCOC(=O)Nc2cccc3ccccc23)CCCC1 | inconclusive: 4.47 µM [activator, full curve] | –
COc1cccc(C2=CC(=O)C[C@H](c3ccc4c(c3)OCO4)C2)c1OC | inconclusive: 28.2 µM [activator, single point] | –
CC(=O)C1=C(C)NC(=O)CC1c1ccccc1Cl (centres undefined) | – | inactive: 19.3%
COc1ccc(N(C)S(=O)(=O)c2cccc(C(=O)OCC(=O)Nc3cc(C)ccc3OC)c2)cc1 | inconclusive: 20 µM [activator, single point] | –
COCCNC(=O)C1=C(N)C(C(=O)Nc2ccc(C)c(S(=O)(=O)N3CCCCC3)c2)SC1=Nc1ccc(C)cc1C (centres undefined) | inconclusive: 4.47 µM [activator, full curve, poor fit] | –
O=[N+]([O-])c1ccc(NN=Cc2ccc(O)cc2)nc1 | – | inactive: -7.71%
O=S(=O)(c1ccccc1)c1nc(Nc2ccccc2N2CCOCC2)sc1Cl | inconclusive: 12.6 µM [activator, partial curve] | –
COc1ccc(CCNC(=O)CN2CCC(C)CC2)cc1OC | – | inconclusive: 48.2% [activator]
CCOc1ccc(NC(=O)CN2C(=O)COc3ccc(S(=O)(=O)Nc4ccccc4)cc32)cc1 | inconclusive: 44.7 µM [activator, single point] | –

SMILES | Potency | growth rescue (activation)
Cc1n[nH]c(C)c1CCc1nc2c3ccccc3nc(SCC(=O)Nc3ccccc3F)n2n1 | inconclusive: 39.8 µM [activator, single point] | –
COc1ccc(OC)c(-c2nc(C(=O)NCC3CCCO3)cc3c2[nH]c2ccccc23)c1 (centres undefined) | – | inactive: 3.97%
CCN(CC)C(=O)CC(c1ccc(N(C)C)cc1)c1c(OC)cc(OC)c2c(-c3ccccc3)cc(=O)oc12 (centres undefined) | inconclusive: 28.2 µM [activator, single point] | –
COc1ccc(CNC(=O)COc2ccccc2C(=O)c2cnn(-c3ccccc3)c2)cc1OC | inconclusive: 50.1 µM [activator, single point] | –
CC(C)Oc1ccc(C(=O)N/N=C/c2ccc(-c3ccc(S(=O)(=O)Nc4ncccn4)cc3)o2)cc1 | inconclusive: 2.51 µM [activator, full curve] | –
CCOc1ccccc1NC(=O)Cn1c(=O)n(Cc2ccccc2)c(=O)c2c(C)c(C(=O)N(C)C)sc21 | inconclusive: 39.8 µM [activator, partial curve, poor fit] | –
CN(C(=O)COC(=O)c1ccccc1Nc1ccccc1)c1c(N)n(Cc2ccccc2)c(=O)[nH]c1=O | active: 35.5 µM | –
Cc1cc(Nc2cccc(Cl)c2C)n2nc(Cc3ccccc3)nc2n1 | – | inactive: 31.3%
CN(C)c1ccc(NC(=O)c2ccc(Cn3cc([N+](=O)[O-])cn3)cc2)cc1 | inconclusive: 39.8 µM [activator, partial curve, poor fit] | –
O=C(O)CCC(=O)N1N=C(c2ccccc2)CC1c1ccc(Br)cc1 (centres undefined) | – | inactive: 33.3%
Cc1ccc2c(c1)N(C(=O)CCC(=O)NC1CCCCCC1)CC(C)O2 (centres undefined) | – | inactive: 23.8%
Cc1ccc(NC(=O)Cn2c(CCC(=O)O)ccc2-c2cccs2)cc1 | inconclusive: 28.2 µM [activator, partial curve] | –
NC(=O)c1nsc(C(=O)N(c2ccc(F)cc2)C(C(=O)NCC2CCCO2)c2c[nH]c3ccccc23)c1N (centres undefined) | inconclusive: 50.1 µM [activator, single point] | –
CCCCNC(=O)C[C@H]1C[C@@]2(C(=O)OC)C(=C[C@H](COCc3ccccc3)O[C@@H]2C)N(Cc2ccc(Cl)cc2Cl)C1=O | inconclusive: 25.1 µM [activator, partial curve, poor fit] | –
O=C(CSc1nnc(-c2c[nH]c3ccccc23)o1)N1CCCCC1 | inconclusive: 11.2 µM [activator, single point] | –
CCCCOCCCNC(=O)C[C@H]1C[C@@]2(C(=O)OC)C(=C[C@H](COCc3ccccc3)O[C@@H]2C)N(Cc2ccc(Cl)cc2Cl)C1=O | inconclusive: 28.2 µM [activator, partial curve] | –
COc1ccc(-c2ccc(CN3C(C(C)C)C(=O)N(Cc4cn(Cc5ccco5)nn4)CCS3(=O)=O)cc2)cc1OC (centres undefined) | inconclusive: 28.2 µM [activator, single point] | –
Cc1ccc(NC(=S)NC(=O)C2CC2)cc1Cl | – | inactive: 13.6%
Cc1ccc(N(Cc2ccccc2)C(=O)c2ccc(C)c(S(=O)(=O)N3CCOCC3)c2)cc1 | inconclusive: 28.2 µM [activator, single point] | –
